# According to the supplement of paper PMC8728848:
# This is one part of the list.
# Columns and labels:
# Experiment in all cases: glycan array binding signal (z-score within array); higher = stronger binding
# Details in all cases: glycan notation: IUPAC condensed, linker removed
# [1] = target: Gal(b1-4)GlcNAc(b1-2)Man(a1-6)[Man(a1-3)]Man(b1-4)GlcNAc(b1-4)GlcNAc
# Procedure, shortened: (§1)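 Negative Z-scores can be read as non-binding. The Z-score is calculated within each array and then averaged across arrays of one protein sequence at different concentrations or buffers and across linkers. Arrays, 3228 in all, were curated from the Consortium for Functional Glycomics database and kept only where the protein sequence was available.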
# [2] = target: Gal(b1-4)GlcNAc(b1-2)[Gal(b1-4)GlcNAc(b1-4)]Man(a1-3)[Gal(b1-4)GlcNAc(b1-2)Man(a1-6)]Man(b1-4)GlcNAc(b1-4)GlcNAc
# Procedure, shortened: as §1
# [3] = target: Gal(b1-4)GlcNAc(b1-2)[Gal(b1-4)GlcNAc(b1-4)]Man(a1-3)[Gal(b1-4)GlcNAc(b1-2)[Gal(b1-4)GlcNAc(b1-6)]Man(a1-6)]Man(b1-4)GlcNAc(b1-4)GlcNAc
# Procedure, shortened: as §1
# [4] = target: Gal(b1-4)GlcNAc(b1-2)[Gal(b1-4)GlcNAc(b1-4)]Man(a1-3)[GlcNAc(b1-4)][Gal(b1-4)GlcNAc(b1-2)Man(a1-6)]Man(b1-4)GlcNAc(b1-4)GlcNAc
# Procedure, shortened: as §1
# [5] = target: Gal(b1-4)GlcNAc(b1-2)[Gal(b1-4)GlcNAc(b1-4)]Man(a1-3)[GlcNAc(b1-4)][Gal(b1-4)GlcNAc(b1-2)[Gal(b1-4)GlcNAc(b1-6)]Man(a1-6)]Man(b1-4)GlcNAc(b1-4)GlcNAc
# Procedure, shortened: as §1
# [6] = target: Gal(b1-4)GlcNAc(b1-2)[Gal(b1-4)GlcNAc(b1-4)]Man(a1-3)[GlcNAc(b1-4)][Gal(b1-4)GlcNAc(b1-2)[Gal(b1-4)GlcNAc(b1-6)]Man(a1-6)]Man(b1-4)GlcNAc(b1-4)[Fuc(a1-6)]GlcNAc
# Procedure, shortened: as §1
# [7] = target: Gal(b1-4)GlcNAc(b1-2)[Gal(b1-4)GlcNAc(b1-6)]Man(a1-6)[Gal(b1-4)GlcNAc(b1-2)Man(a1-3)]Man(b1-4)GlcNAc(b1-4)GlcNAc
# Procedure, shortened: as §1
# [8] = target: Gal(b1-4)GlcNAc(b1-2)[Gal(b1-4)GlcNAc(b1-6)]Man(a1-6)[Gal(b1-4)GlcNAc(b1-2)Man(a1-3)]Man(b1-4)GlcNAc(b1-4)[Fuc(a1-6)]GlcNAc
# Procedure, shortened: as §1
# [9] = target: Gal(b1-4)GlcNAc(b1-2)[Gal(b1-4)GlcNAc(b1-6)]Man(a1-6)[GlcNAc(b1-4)][Gal(b1-4)GlcNAc(b1-2)Man(a1-3)]Man(b1-4)GlcNAc(b1-4)GlcNAc
# Procedure, shortened: as §1
# [10] = target: Gal(b1-4)GlcNAc(b1-2)[Gal(b1-4)GlcNAc(b1-6)]Man(a1-6)[GlcNAc(b1-4)][Gal(b1-4)GlcNAc(b1-2)[Gal(b1-4)GlcNAc(b1-4)]Man(a1-3)]Man(b1-4)GlcNAc(b1-4)[Fuc(a1-6)]GlcNAc
# Procedure, shortened: as §1
# [11] = target: Gal(b1-4)GlcNAc(b1-3)Gal(b1-3)GalNAc
# Procedure, shortened: as §1
# [12] = target: Gal(b1-4)GlcNAc(b1-3)Gal(b1-3)GlcNAc
# Procedure, shortened: as §1
# [13] = target: Gal(b1-4)GlcNAc(b1-3)Gal(b1-4)Glc
# Procedure, shortened: as §1
# [14] = target: Gal(b1-4)GlcNAc(b1-3)Gal(b1-4)GlcNAc
# Procedure, shortened: as §1
# [15] = target: Gal(b1-4)GlcNAc(b1-3)Gal(b1-4)GlcNAc(b1-2)Man(a1-3)[Gal(b1-4)GlcNAc(b1-3)Gal(b1-4)GlcNAc(b1-2)Man(a1-6)]Man(b1-4)GlcNAc(b1-4)GlcNAc
# Procedure, shortened: as §1
# [16] = target: Gal(b1-4)GlcNAc(b1-3)Gal(b1-4)GlcNAc(b1-2)Man(a1-3)[Gal(b1-4)GlcNAc(b1-3)Gal(b1-4)GlcNAc(b1-2)Man(a1-6)]Man(b1-4)GlcNAc(b1-4)[Fuc(a1-6)]GlcNAc
# Procedure, shortened: as §1
# [17] = target: Gal(b1-4)GlcNAc(b1-3)Gal(b1-4)GlcNAc(b1-2)[Gal(b1-4)GlcNAc(b1-3)Gal(b1-4)GlcNAc(b1-6)]Man(a1-6)[Gal(b1-4)GlcNAc(b1-3)Gal(b1-4)GlcNAc(b1-2)Man(a1-3)]Man(b1-4)GlcNAc(b1-4)GlcNAc
# Procedure, shortened: as §1
# [18] = target: Gal(b1-4)GlcNAc(b1-3)Gal(b1-4)GlcNAc(b1-2)[Gal(b1-4)GlcNAc(b1-3)Gal(b1-4)GlcNAc(b1-6)]Man(a1-6)[Gal(b1-4)GlcNAc(b1-3)Gal(b1-4)GlcNAc(b1-2)Man(a1-3)]Man(b1-4)GlcNAc(b1-4)[Fuc(a1-6)]GlcNAc
# Procedure, shortened: as §1
# [19] = target: Gal(b1-4)GlcNAc(b1-3)Gal(b1-4)GlcNAc(b1-3)Gal(b1-4)GlcNAc
# Procedure, shortened: as §1
# [20] = target: Gal(b1-4)GlcNAc(b1-3)Gal(b1-4)GlcNAc(b1-3)Gal(b1-4)GlcNAc(b1-2)Man(a1-3)[Gal(b1-4)GlcNAc(b1-3)Gal(b1-4)GlcNAc(b1-3)Gal(b1-4)GlcNAc(b1-2)Man(a1-6)]Man(b1-4)GlcNAc(b1-4)GlcNAc
# Procedure, shortened: as §1
# [21] = target: Gal(b1-4)GlcNAc(b1-3)Gal(b1-4)GlcNAc(b1-3)Gal(b1-4)GlcNAc(b1-2)Man(a1-3)[Gal(b1-4)GlcNAc(b1-3)Gal(b1-4)GlcNAc(b1-3)Gal(b1-4)GlcNAc(b1-2)Man(a1-6)]Man(b1-4)GlcNAc(b1-4)[Fuc(a1-6)]GlcNAc
# Procedure, shortened: as §1
# [22] = target: Gal(b1-4)GlcNAc(b1-3)Gal(b1-4)GlcNAc(b1-3)Gal(b1-4)GlcNAc(b1-2)[Gal(b1-4)GlcNAc(b1-3)Gal(b1-4)GlcNAc(b1-3)Gal(b1-4)GlcNAc(b1-6)]Man(a1-6)[Gal(b1-4)GlcNAc(b1-3)Gal(b1-4)GlcNAc(b1-3)Gal(b1-4)GlcNAc(b1-2)Man(a1-3)]Man(b1-4)GlcNAc(b1-4)[Fuc(a1-6)]GlcNAc
# Procedure, shortened: as §1
binder,measurement,setting,value
OrysaEULS2 (Oryza sativa) (protein) MVYCRANPNYAMTARNGAVVLAPANPKDEYQHWIKDMRWSTSIKDEEGYPAFALVNKATGQAIKHSLGQSHPVRLVPYNPEVMDESVLWTESRDVGNGFRCIRMVNNIYLNFDAFHGDKYHGGVRDGTDIVLWKWCEGDNQRWKIQPYYILEQKLISEEDLNSAVDHHHHHH,glycan array binding signal (z-score),[1],5.65
same,glycan array binding signal (z-score),[2],-0.191
same,glycan array binding signal (z-score),[3],-0.21
same,glycan array binding signal (z-score),[4],-0.213
same,glycan array binding signal (z-score),[5],-0.203
same,glycan array binding signal (z-score),[6],-0.176
same,glycan array binding signal (z-score),[7],1.53
same,glycan array binding signal (z-score),[8],0.035
same,glycan array binding signal (z-score),[9],-0.158
same,glycan array binding signal (z-score),[10],-0.185
same,glycan array binding signal (z-score),[11],-0.255
same,glycan array binding signal (z-score),[12],-0.176
same,glycan array binding signal (z-score),[13],-0.186
same,glycan array binding signal (z-score),[14],-0.192
same,glycan array binding signal (z-score),[15],0.706
same,glycan array binding signal (z-score),[16],0.18
same,glycan array binding signal (z-score),[17],-0.109
same,glycan array binding signal (z-score),[18],0.319
same,glycan array binding signal (z-score),[19],-0.192
same,glycan array binding signal (z-score),[20],0.319
same,glycan array binding signal (z-score),[21],-0.09
same,glycan array binding signal (z-score),[22],0.086
